Assay results reported in PubChem BioAssay AID624417 (National Center for Advancing Translational Sciences (NCATS), 2012).
The campaign covered roughly 410,000 compounds. About 6,400 (1.6%) were called active. Inconclusive means that the source gave no clear call. Such entries were picked first, then a sample of the others. Calls come from the whole dose curve; as a rule, active = well fitted inhibition curve with a large enough effect; inconclusive = small, poorly fitted or top-dose-only effect; inactive = no such curve, though single readings can be large or run the other way. Potencies of inconclusive entries are doubtful fits and often do not repeat.

target: Glucagon-like peptide 1 receptor (Homo sapiens) (UniProt P43220); experiment: qHTS of GLP-1 Receptor Inverse Agonists (Inhibition Mode); conditions: HEK293 GLP-1R CRE-luciferase, luminescence, 24 h, GLP-1R form is constitutively active; activity change, negative = inhibition: at 38.3 µM (top of the series) unless noted; note: nearly all actives have a fitted effect of over 55% in size
Method in brief: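 Stable HEK293 clone (constitutively active GLP-1R + cAMP-response luciferase); 200 cells/uL plated, 12 h pre-culture, compound 24 hr, 37 deg C/5% CO2; detection reagent 12 min RT; luminescence.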
% is set by controls: 0 for no effect and ±100 for the full control effect; potency is the fitted concentration of half-maximal effect; tags give direction and shape of the fitted curve.

Sequence of UniProt P43220 (P43220 whole entry, looked up): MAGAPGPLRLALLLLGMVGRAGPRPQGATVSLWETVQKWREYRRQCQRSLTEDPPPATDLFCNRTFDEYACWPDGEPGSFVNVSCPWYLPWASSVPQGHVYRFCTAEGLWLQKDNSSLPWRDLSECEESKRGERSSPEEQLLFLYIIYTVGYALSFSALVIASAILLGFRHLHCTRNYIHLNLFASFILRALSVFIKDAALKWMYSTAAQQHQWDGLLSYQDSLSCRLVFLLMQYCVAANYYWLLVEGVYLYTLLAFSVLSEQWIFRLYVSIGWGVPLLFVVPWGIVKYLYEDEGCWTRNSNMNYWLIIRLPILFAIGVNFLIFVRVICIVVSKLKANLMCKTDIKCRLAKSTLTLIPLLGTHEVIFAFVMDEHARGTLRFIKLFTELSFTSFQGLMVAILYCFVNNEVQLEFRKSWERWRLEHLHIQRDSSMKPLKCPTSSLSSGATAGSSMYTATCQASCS

Potency, active:
Cc1ccc(CN(C)C(=O)CN2C(=O)NC3(CCCc4ccccc43)C2=O)c(C)c1 (centres undefined) 3.16 µM
CCOc1ccc(N(CC(=O)Nc2ccc(C)c(C)c2)S(=O)(=O)c2c(C)noc2C)cc1 10 µM
CC(=O)Nc1ccc(-c2csc(NC(=O)Cc3cccc(F)c3)n2)cc1 11.2 µM

Potency, inconclusive:
O=C(Nc1ccc(Cl)c(C(F)(F)F)c1)C1Cc2c(-c3ccccc3Oc3ccccc3)ccnc2O1 (centres undefined) 5.62 µM [inhibitor, full curve, poor fit]
C=CCc1cccc(/C=N/NC(=O)CNc2ccccc2OC)c1O 2.51 µM [inhibitor, partial curve]
Cc1nc(N2CCN(Cc3nc4ccccc4[nH]3)CC2)c2oc3ccccc3c2n1 28.2 µM [inhibitor, single point]
Cc1ccc(NC(=O)Cn2cc(S(=O)(=O)Cc3ccccc3)c3ccccc32)cc1C 15.8 µM [inhibitor, single point]
CN(C)CCCNc1c2ccccc2nc2ccccc12 3.55 µM [inhibitor, full curve, poor fit]
CCOC(=O)C1(Cc2cccc(OC)c2)CCN(C/C=C/c2ccccc2)CC1 11.2 µM [inhibitor, partial curve, poor fit]
Cc1ccc(C)c(NC(=S)NCC(c2ccccc2)N(C)C)c1 (centres undefined) 8.91 µM [inhibitor, partial curve, poor fit]
O=C(c1ccco1)n1nc(NCc2ccccc2)nc1NCc1ccccc1 11.2 µM [inhibitor, partial curve, poor fit]
COc1ccc(C)cc1NC(=O)CNC(C)C(=O)Nc1ccc(C(C)=O)cc1 (centres undefined) 5.62 µM [inhibitor, full curve]
Cc1cc([N+](=O)[O-])ccc1NC(=S)NC1CCCC1 11.2 µM [inhibitor, single point]
CCOc1ccc2nc(N3CCCC(C(=O)NCc4ccc(OC)cc4)C3)sc2c1 (centres undefined) 3.16 µM [inhibitor, single point]
CCN(CC)c1ccc(NC(=O)c2ccc3c(c2)c(C)c(C)n3C)cc1 14.1 µM [inhibitor, partial curve, poor fit]
CN(C)S(=O)(=O)c1cccc(COc2ccccc2C(=O)Nc2ccccc2)c1 28.2 µM [inhibitor, single point]
COC(=O)C1=C(C(=O)OC)[C@@H]2N(Cc3ccccc3)c3ccccc3[C@@]23C[C@@H](C(=O)OC)N(C(C)=O)C3=N1 14.1 µM [inhibitor, partial curve, poor fit]
O=C(CN1CCCN(S(=O)(=O)c2ccc(F)cc2)CC1)Nc1c(Cl)cccc1Cl 11.2 µM [inhibitor, single point]
O=S(=O)(NCC(c1ccco1)N1CCc2ccccc21)c1ccccc1 (centres undefined) 3.55 µM [inhibitor, partial curve, poor fit]
Cc1cc(C)c(NC(=O)CCCCCNC2CCCCC2)c(C)c1 7.08 µM [inhibitor, partial curve]
O=C1C2C3C=CC(CC3)C2C(=O)N1c1cccc(Br)c1 (centres undefined) 2.24 µM [inhibitor, full curve, poor fit]
CC1c2cc3c(cc2CCN1S(=O)(=O)c1ccccc1)OCCCO3 (centres undefined) 12.6 µM [inhibitor, partial curve, poor fit]
Cc1cc(C)c(Nc2cc(S(=O)(=O)O)c(N)c3c2C(=O)c2ccccc2C3=O)c(C)c1 15.8 µM [inhibitor, partial curve, poor fit]
CC(=O)c1ccc(NC(=S)N(CCCN(C)C)Cc2ccccc2)cc1 10 µM [inhibitor, partial curve, poor fit]
COc1ccc(-c2nc(CN3CCN(Cc4ccccc4)CC3)c(C)o2)cc1 12.6 µM [inhibitor, single point]
Cc1cc(C)nc(NC(=NCCc2c[nH]c3ccccc23)NC(=O)Nc2ccccc2)n1 12.6 µM [inhibitor, single point]
O=C(NCc1cccnc1)c1ccc(CN2CCc3ccccc3C2)cc1 22.4 µM [inhibitor, single point]
O=C1NC(c2ccc(Br)cc2)Nc2ccccc21 (centres undefined) 11.2 µM [inhibitor, partial curve, poor fit]
COc1ccc(Cc2c(C3CCCCC3)nc3cc(C)c(Br)c(C)n23)c(C)c1 10 µM [inhibitor, single point]
Cc1nc(CN2CCN(C(=O)c3ccc(C(C)(C)C)cc3)CC2)cs1 12.6 µM [inhibitor, partial curve, poor fit]
Cc1ccc(-n2ncc(Cl)c2C(=O)NC2CC2)cc1 28.2 µM [inhibitor, single point]
Fc1cccc(Cl)c1CSc1nnnn1-c1ccc2c(c1)OCO2 8.91 µM [inhibitor, single point]
COc1ccc(NC2=C(c3ccc(OC)cc3)C(=O)c3ccccc32)cc1 28.2 µM [inhibitor, single point]
O=C(Nc1ccnn1C1CCN(Cc2ccc(OC(F)F)cc2)CC1)C1CCCC1 5.62 µM [inhibitor, partial curve]
CC(NC(=O)c1cccs1)C(S)c1ccccc1 (centres undefined) 28.2 µM [inhibitor, single point]
O=C(Nc1cccc(Oc2ccccc2)c1)C1Cc2c(-c3ccccc3)ccnc2O1 (centres undefined) 11.2 µM [inhibitor, partial curve]
CCn1c(COc2ccc(C)cc2)nnc1SCC(=O)NCc1ccco1 28.2 µM [inhibitor, single point]
CC(=O)N(C1=C(Cl)C(=O)c2ccccc2C1=O)C1CCCCC1 10 µM [inhibitor, partial curve, poor fit]
CS(=O)(=O)N1N=C(c2ccccc2)CC1c1ccc2nccnc2c1 (centres undefined) 28.2 µM [inhibitor, single point]
CCc1cccc(NC(=O)c2c(C)oc3ncnc(N4CCCCC4)c23)c1 31.6 µM [inhibitor, partial curve, poor fit]
COc1ccccc1C1=NOC(COc2ccc3c(C)cc(=O)oc3c2)C1 (centres undefined) 0.631 µM [inhibitor, full curve]
Cc1ccc(CNC(=O)C(Cc2ccccc2)n2cccc2)cc1 (centres undefined) 14.1 µM [inhibitor, partial curve, poor fit]
O=C1CN(C(=O)COc2ccc(Cl)cc2Cl)C(c2ccc(F)cc2)c2cc(F)ccc2N1 (centres undefined) 28.2 µM [inhibitor, single point]
CC(C(=O)N1CCc2ccccc21)N1CCN(S(=O)(=O)c2cccc(C(F)(F)F)c2)CC1 (centres undefined) 10 µM [inhibitor, partial curve, poor fit]
COc1ccc(C)cc1S(=O)(=O)N1CCN(c2cccc(C(F)(F)F)c2)CC1 28.2 µM [inhibitor, single point]
COc1ccc(CNC(=O)c2ccc(Sc3ccc(Cl)cc3)c(NC(C)=O)c2)c(OC)c1 11.2 µM [inhibitor, partial curve]
O=C(NCC(c1ccco1)N1CCN(c2ccc(F)cc2)CC1)c1ccc2c(c1)OCO2 (centres undefined) 10 µM [inhibitor, partial curve, poor fit]
COc1ccc(CC2(C)OC(c3ccc(C)cc3)=NN2C(C)=O)cc1 (centres undefined) 10 µM [inhibitor, partial curve, poor fit]
CC(C)c1ccc(NC(=O)[C@@H](NC(=O)N2CC(=O)Nc3ccccc32)C(C)C)cc1 12.6 µM [inhibitor, partial curve, poor fit]
CCc1n[nH]c(=S)n1/N=C/c1ccc(N(C)c2ccccc2)cc1 31.6 µM [inhibitor, single point]

Activity change, negative = inhibition, inactive:
Cc1ccc(CNC(=O)c2ccc(N3CCC4(CC3)CC(c3ccccc3)=NO4)c(N)c2)cc1 12.5%
COc1cc(NC(=S)N2CCc3ccccc3C2)cc(OC)c1 -4.5%
NC(N)=NS(=O)(=O)c1ccc(N/C=C/C(=O)c2ccc(Cl)c(Cl)c2)cc1 55.5%
CC(C)Cc1nc(S(=O)(=O)c2ccc(Cl)cc2)c(N2CCOCC2)o1 -0.613%
CCNc1nc(Oc2ccc(OCC(=O)OC)nn2)nc(N2CCOCC2)n1 9.09%
Cc1cc(/C=N/NC(=O)c2ccoc2C)cc(C)c1O 8.84%
O=C(Nc1ccc2c(c1)OCCO2)C(C1CC1)N1CCN(c2ccc(F)cc2)CC1 (centres undefined) 10.7%
Cc1ccsc1C(=O)N1CCC1(C)C(=O)NCc1cccnc1 (centres undefined) 3.95%
O=C(c1cc(-c2ccccc2Cl)nc2ccccc12)N1CCC1 7.21%
COc1ccc(C(=O)c2oc3ccccc3c2NC(=O)c2nc(SC)ncc2Cl)cc1Cl 12.3%
C1=C(c2ccccc2)Nc2nnnn2C1c1cccs1 (centres undefined) 0.922%
COCCCN1C(=O)C(O)=C(C(C)=O)C1c1cccc(F)c1 (centres undefined) 1.56%
Cc1ccc2c(c1)c1c(c(=O)n(-c3cccc(Cl)c3)c(=O)n1C)n2C 10.5%
CCSc1ncc(Cl)c(C(=O)Nc2sc(C(C)=O)c(C)c2C(=O)OC)n1 11%
